Data reported in the supplement of paper PMC12217912.
This is one part of the list. Sequences were assembled here from the parent chain. Inactive controls read about 0.05.

B1: TEV protease; numbered along this chain (parent)
chain: MGESLFKGPRDYNPISSSICHLTNESDGHTTSLYGIGFGPFIITNKHLFRRNNGTLVVQSLHGVFKVKDTTTLQQHLVDGRDMIIIRMPKDFPPFPQKLKFREPQREERICLVTTNFQTKSMSSMVSDTSCTFPSGDGIFWKHWIQTKDGQCGSPLVSTRDGFIVGIHSASNFTNTNNYFTSVPKNFMELLTNQEAQQWVSGWRLNADSVLWGGHKVFMVKPEEPFQPVKEATQL

Variants of: B1
Experiment: raw area under fraction-flipped curve 0-4 h after induction (AUC4h, not background-subtracted), DNA-recorder readout of cleavage of the substrate (dimensionless); higher = more cleavage of the substrate by the protease variant
Settings: temperature: 34 °C; time window: 0-4 h after rhamnose induction
Description: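 In vivo DNA recorder in E. coli TOP10(DE3) ΔrhaA at 34 °C. Each TEVp single-site mutant (parent TEVp 0) is paired with a single-site variant of the 7-mer TEVs (canonical ENLYFQ|S). The substrate sits between flexible linkers in a Bxb1-sfGFP-TEVs-SsrA fusion, so cleavage stabilises Bxb1 and speeds flipping of a recombination array, read by NGS. The value is the raw area under the fraction-flipped curve over 0-4 h after rhamnose induction (AUC4h), with ≥20 reads per time point. It is not background-subtracted; inactive controls average about 0.047.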
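Also: Bxb1 expression induced with 0.2% (w/v) L-rhamnose at OD600 near 0.5, cultures sampled hourly, flipped fraction per protease–substrate barcode pair counted by paired-end Illumina sequencing.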

Variant	area with substrate ENLYAQS	area with substrate ENLYCQS	area with substrate ENLYDQS	area with substrate ENLYEQS	area with substrate ENLYGQS	area with substrate ENLYKQS	area with substrate ENLYLQS	area with substrate ENLYMQS	area with substrate ENLYNQS	area with substrate ENLYPQS	area with substrate ENLYQQS	area with substrate ENLYRQS	area with substrate ENLYSQS	area with substrate ENLYVQS	area with substrate ENLYWQS	area with substrate ENLYYQS	area with substrate ENLYHQS	area with substrate ENLYIQS	area with substrate ENLYTQS
MGESLFKGPRDYNPISSSICHLTNESDGHTTSLYGIGFGPFIITNKHLFRRNNGTLVVQSLHGVFKVKDTTTLQQHLVDGRDMIIIRMPKDFPPFPQKLKFREPQREERICLVTTNFQTKSMSSMVSDTSCTFPSGDGIFWKHWIQTKDGQCGSPLVSTRDGFIVGIHSASNFTNTNNYFTSVPKNFMELNTNQEAQQWVSGWRLNADSVLWGGHKVFMVKPEEPFQPVKEATQL [L191N]	0.0667	0.0286	0.0521	0.0558	0.0461	0.0617	0.047	0.0422	0.0623	0.0476	0.054	0.0488	0.0483	0.0654	0.0821	0.039			
MGESLFKGPRDYNPISSSICHLTNESDGHTTSLYGIGFGPFIITNKHLFRRNNGTLVVQSLHGVFKVKDTTTLQQHLVDGRDMIIIRMPKDFPPFPQKLKFREPQREERICLVTTNFQTKSMSSMVSDTSCTFPSGDGIFWKHWIQTKDGQCGSPLVSTRDGFIVGIHSASNFTNTNNYFTSVPKNFMELHTNQEAQQWVSGWRLNADSVLWGGHKVFMVKPEEPFQPVKEATQL [L191H]	0.0646		0.0717	0.0471	0.0636	0.0429		0.0429		0.0552	0.0624	0.0766		0.0587	0.059	0.0785	0.0549		
MGESLFKGPRDYNPISSSICHLTNESDGHTTSLYGIGFGPFIITNKHLFRRNNGTLVVQSLHGVFKVKDTTTLQQHLVDGRDMIIIRMPKDFPPFPQKLKFREPQREERICLVTTNFQTKSMSSMVSDTSCTFPSGDGIFWKHWIQTKDGQCGSPLVSTRDGFIVGIHSASNFTNTNNYFTSVPKNFMELRTNQEAQQWVSGWRLNADSVLWGGHKVFMVKPEEPFQPVKEATQL [L191R]	0.0681	0.051	0.0643	0.0615		0.0375		0.0411	0.0497			0.0632	0.0599	0.0588	0.0513		0.0582	0.128	0.05
MGESLFKGPRDYNPISSSICHLTNESDGHTTSLYGIGFGPFIITNKHLFRRNNGTLVVQSLHGVFKVKDTTTLQQHLVDGRDMIIIRMPKDFPPFPQKLKFREPQREERICLVTTNFQTKSMSSMVSDTSCTFPSGDGIFWKHWIQTKDGQCGSPLVSTRDGFIVGIHSASNFTNTNNYFTSVPDNFMELLTNQEAQQWVSGWRLNADSVLWGGHKVFMVKPEEPFQPVKEATQL [K185D]	0.0699		0.0516	0.0503	0.0351				0.0446	0.071							0.0654		
MGESLFKGPRDYNPISSSICHLTNESDGHTTSLYGIGFGPFIITNKHLFRRNNGTLVVQSLHGVFKVKDTTTLQQHLVDGRDMIIIRMPKDFPPFPQKLKFREPQREERICLVTTNFQTKSMSSMVSDTSCTFPSGDGIFWKHWIQTKDGQCGSPLVSTRDGFIVGIHSASNFTNTNNYFTSVPRNFMELLTNQEAQQWVSGWRLNADSVLWGGHKVFMVKPEEPFQPVKEATQL [K185R]	0.0858			0.0755	0.0711	0.0572		0.0824	0.0731	0.0829						0.0639	0.0765		
MGESLFKGPRDYNPISSSICHLTNESDGHTTSLYGIGFGPFIITNKHLFRRNNGTLVVQSLHGVFKVKDTTTLQQHLVDGRDMIIIRMPKDFPPFPQKLKFREPQREERICLVTTNFQTKSMSSMVSDTSCTFPSGDGIFWKHWIQTKDGQCGSPLVSTRDGFIVGIHSASNFTNTNNYFTSVPYNFMELLTNQEAQQWVSGWRLNADSVLWGGHKVFMVKPEEPFQPVKEATQL [K185Y]	0.0976		0.0584		0.069	0.0332		0.0878	0.0661	0.0802	0.075	0.0491	0.0599	0.0481	0.079		0.0621	0.0941	0.0819
MGESLFKGPRDYNPISSSICHLTNESDGHTTSLYGIGFGPFIITNKHLFRRNNGTLVVQSLHGVFKVKDTTTLQQHLVDGRDMIIIRMPKDFPPFPQKLKFREPQREERICLVTTNFQTKSMSSMVSDTSCTFPSGDGIFWKHWIQTKDGQCGSPLVSTRDGFIVGIHSASNFTNTNNYFTSVPKNFFELLTNQEAQQWVSGWRLNADSVLWGGHKVFMVKPEEPFQPVKEATQL [M188F]	0.0646		0.0577		0.0625	0.0811		0.0937			0.0628		0.0619	0.116		0.0717	0.0677		
MGESLFKGPRDYNPISSSICHLTNESDGHTTSLYGIGFGPFIITNKHLFRRNNGTLVVQSLHGVFKVKDTTTLQQHLVDGRDMIIIRMPKDFPPFPQKLKFREPQREERICLVTTNFQTKSMSSMVSDTSCTFPSGDGIFWKHWIQTKDGQCGSPLVSTRDGFIVGIHSASNFTNTNNYFTSVPKNFMELLTNQQAQQWVSGWRLNADSVLWGGHKVFMVKPEEPFQPVKEATQL [E195Q]	0.0744		0.0673		0.0497			0.0825	0.0757	0.0729					0.0972	0.0806	0.0736		
MGESLFKGPRDYNPISSSICHLTNESDGHTTSLYGIGFGPFIITNKHLFRRNNGTLVVQSLHGVFKVKDTTTLQQHLVDGRDMIIIRMPKDFPPFPQKLKFREPQREERICLVTTNFQTKSMSSMVSDTSCTFPSGDGIFWKHWIQTKDGQCGSPLVSTRDGFIVGIHSASNFTNTNNYFTSVPKNFMELLTNQWAQQWVSGWRLNADSVLWGGHKVFMVKPEEPFQPVKEATQL [E195W]	0.0692			0.0714	0.0631	0.069						0.0622	0.0809	0.0834	0.0814				
MGESLFKGPRDYNPISSSICHLTNESDGHTTSLYGIGFGPFIITNKHLFRRNNGTLVVQSLHGVFKVKDTTTLQQHLVDGRDMIIIRMPKDFPPFPQKLKFREPQREERICLVTTNFQTKSMSSMVSDTSCTFPSGDGIFWKHWIQTKDGQCGSPLVSTRDGFIVGIHSASNFTNTNNYFTSVPKNFMQLLTNQEAQQWVSGWRLNADSVLWGGHKVFMVKPEEPFQPVKEATQL [E189Q]	0.091			0.0944	0.0742	0.0624			0.0544		0.0768	0.0548	0.076	0.106	0.0844		0.0807	0.122	
